This passage reports binding results from publication PMC10526654.

Protein sequences, listed by entry. Tags and fused reporters are not part of them. Lines headed by an entry give the natural chain unless they say otherwise; changes in a name come on top.
UniProt P19474: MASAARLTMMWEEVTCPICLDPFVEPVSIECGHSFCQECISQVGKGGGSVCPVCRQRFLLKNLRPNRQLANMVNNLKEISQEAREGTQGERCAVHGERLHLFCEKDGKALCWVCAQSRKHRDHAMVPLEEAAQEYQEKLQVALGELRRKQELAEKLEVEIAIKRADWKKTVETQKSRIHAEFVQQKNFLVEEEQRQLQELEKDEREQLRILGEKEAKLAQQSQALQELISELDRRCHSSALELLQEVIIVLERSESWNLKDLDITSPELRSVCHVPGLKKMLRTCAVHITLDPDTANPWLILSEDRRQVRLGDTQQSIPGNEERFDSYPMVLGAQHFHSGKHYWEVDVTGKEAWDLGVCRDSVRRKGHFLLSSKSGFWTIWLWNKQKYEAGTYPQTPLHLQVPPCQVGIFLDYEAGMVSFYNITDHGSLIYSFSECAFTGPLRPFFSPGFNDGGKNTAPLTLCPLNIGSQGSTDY

Experiment [1] has as its target HA-TRIM21 (in GBM cells) (UniProt P19474). Kind of experiment: co-IP; U87-MG cells transfected with HA-TRIM21 or HA-TRIM21^R443W; lysates immunoprecipitated with anti-HA antibodies.
Another experiment addresses HA-TRIM21^R443W (UniProt P19474). The description is as above.
Experiment [2] deals with HA-TRIM21 (in GBM cells) (UniProt P19474). Kind of experiment: co-IP; U87 and U251 cells; ectopic TRIM21 with TIF1γ (Figure 4C); Flag-TIF1γ precipitated with anti-flag (Figure 4D); wash 50 mM Tris HCl, 150 mM NaCl, pH 7.4.

No constants are given. Whether binding was seen depends on the method and setting. Binding seen in cells or lysates may run through a third protein. Some binding calls cover weakened binding; strength is not graded here.

B1: TIF1γ (endogenous in GBM cells) (protein, UniProt Q9UPN9 1-1127)
chain: MAENKGGGEAESGGGGSGSAPVTAGAAGPAAQEAEPPLTAVLVEEEEEEGGRAGAEGGAAGPDDGGVAAASSGSAQAASSPAASVGTGVAGGAVSTPAPAPASAPAPGPSAGPPPGPPASLLDTCAVCQQSLQSRREAEPKLLPCLHSFCLRCLPEPERQLSVPIPGGSNGDIQQVGVIRCPVCRQECRQIDLVDNYFVKDTSEAPSSSDEKSEQVCTSCEDNASAVGFCVECGEWLCKTCIEAHQRVKFTKDHLIRKKEDVSESVGASGQRPVFCPVHKQEQLKLFCETCDRLTCRDCQLLEHKEHRYQFLEEAFQNQKGAIENLLAKLLEKKNYVHFAATQVQNRIKEVNETNKRVEQEIKVAIFTLINEINKKGKSLLQQLENVTKERQMKLLQQQNDITGLSRQVKHVMNFTNWAIASGSSTALLYSKRLITFQLRHILKARCDPVPAANGAIRFHCDPTFWAKNVVNLGNLVIESKPAPGYTPNVVVGQVPPGTNHISKTPGQINLAQLRLQHMQQQVYAQKHQQLQQMRMQQPPAPVPTTTTTTQQHPRQAAPQMLQQQPPRLISVQTMQRGNMNCGAFQAHQMRLAQNAARIPGIPRHSGPQYSMMQPHLQRQHSNPGHAGPFPVVSVHNTTINPTSPTTATMANANRGPTSPSVTAIELIPSVTNPENLPSLPDIPPIQLEDAGSSSLDNLLSRYISGSHLPPQPTSTMNPSPGPSALSPGSSGLSNSHTPVRPPSTSSTGSRGSCGSSGRTAEKTSLSFKSDQVKVKQEPGTEDEICSFSGGVKQEKTEDGRRSACMLSSPESSLTPPLSTNLHLESELDALASLENHVKIEPADMNESCKQSGLSSLVNGKSPIRSLMHRSARIGGDGNNKDDDPNEDWCAVCQNGGDLLCCEKCPKVFHLTCHVPTLLSFPSGDWICTFCRDIGKPEVEYDCDNLQHSKKGKTAQGLSPVDQRKCERLLLYLYCHELSIEFQEPVPASIPNYYKIIKKPMDLSTVKKKLQKKHSQHYQIPDDFVADVRLIFKNCERFNEMMKVVQVYADTQEINLKADSEVAQAGKAVALYFEDKLTEIYSDRTFAPLPEFEQEEDDGEVTEDSDEDFIQPRRKRLKSDERPVHIK
As to B1, the results for the binding entry in the experiment with HA-TRIM21 (in GBM cells) [1], with HA-TRIM21^R443W and with HA-TRIM21 (in GBM cells) [2] were “binds”, “no binding” and “binds”, respectively.
